Results taken from patent US20250009878A1.

Target: WT MCT4/BSG-2 complex (mouse) (mouse), P57787
Assay: cell-based or functional assay

Sequence of WT MCT4/BSG-2 complex (mouse) (mouse), P57787 (P57787 whole entry, chain 1 of 2): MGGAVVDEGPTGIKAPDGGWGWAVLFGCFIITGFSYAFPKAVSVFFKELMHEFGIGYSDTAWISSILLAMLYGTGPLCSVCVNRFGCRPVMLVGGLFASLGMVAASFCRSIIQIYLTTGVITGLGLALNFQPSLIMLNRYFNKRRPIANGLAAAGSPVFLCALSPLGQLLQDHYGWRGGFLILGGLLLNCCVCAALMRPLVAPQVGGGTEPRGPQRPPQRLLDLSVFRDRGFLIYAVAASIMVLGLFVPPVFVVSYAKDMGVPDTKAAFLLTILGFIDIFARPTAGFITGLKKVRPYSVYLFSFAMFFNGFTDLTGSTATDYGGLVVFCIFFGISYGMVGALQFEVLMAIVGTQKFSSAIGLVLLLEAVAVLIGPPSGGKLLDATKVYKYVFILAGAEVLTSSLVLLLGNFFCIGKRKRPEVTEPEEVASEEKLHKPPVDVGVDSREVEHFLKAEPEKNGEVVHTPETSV
Sequence of WT MCT4/BSG-2 complex (mouse) (mouse), P57787 (P18572 other isoform, or with tags, fused parts or gaps, chain 2 of 2, further chain): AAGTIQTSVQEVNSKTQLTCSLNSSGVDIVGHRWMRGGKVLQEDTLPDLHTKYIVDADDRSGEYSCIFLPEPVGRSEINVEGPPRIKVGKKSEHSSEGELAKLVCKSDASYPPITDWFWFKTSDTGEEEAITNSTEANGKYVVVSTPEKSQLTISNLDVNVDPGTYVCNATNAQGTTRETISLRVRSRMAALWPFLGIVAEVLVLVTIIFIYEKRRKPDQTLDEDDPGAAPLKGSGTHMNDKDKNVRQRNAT

B1: WZHAb10 (antibody, human IgG1, kappa)
heavy: QVQLVQSGAEVKKPGASVKVSCKASGYTFTNYWIHWVRQAPGQGLEWMGMIHPNSGSINYNEKFKTRVTMTRDTSTSTVYMELSSLRSEDTAVYYCARVGSGSLDYWGQGTLVTVSS[human IgG1 constant region left out here]
light: EIVLTQSPATLSLSPGERATLSCRASQSISDYLHWYQQKPGQAPRLLIKYVSQSISGIPARFSGSGSGTYFTLTISSLEPEDVAVYYCQNGEEAPYTFGQGTKLEIKRTVAAPSVFIFPPSDEQLKSGTASVVCLLNNFYPREAKVQWKVDNALQSGNSQESVTEQDSKDSTYSLSSTLTLSKADYEKHKVYACEVTHQGLSSPVTKSFNRGEC
decrease in transport activity (H+ influx, HPTS proteoliposome flux assay): 50%
